# The list shows a part of the results.
# B1: UDA (Urtica dioica), P11218 (protein)
# chain: MMMRFLSAVVIMSSAMAVGLVSAQRCGSQGGGGTCPALWCCSIWGWCGDSEPYCGRTCENKCWSGERSDHRCGAAVGNPPCGQDRCCSVHGWCGGGNDYCSGSKCQYRCSSSVRGPRVALSGNSTANSIGNVVVTEPLFDQMFSHRKDCPSQGFYSYHSFLVAAESFPAFGTIGDVATRKREVAAFLAHISQATSGERSDVENPHAWGLCHINTTTVTENDFCTSSDWPCAAGKKYSPRGPIQLTHNFNYGLAGQAIGEDLIQNPDLVEKDPIISFKTALWFWMSQHDNKPSCHDIVLNANSAANRIPNKGVIGNIISRAFGHDDFAVRSSSIGFYKRYCDMLGVSYGHDLKYWFDNTPSSEFQRIQMRVAA
# Assays:
# Test in all cases: glycan array binding signal (z-score within array); higher = stronger binding
# Conditions in all cases: glycan notation: IUPAC condensed, linker removed
# [1] = molecular target: Fuc(a1-2)[Gal(a1-3)]Gal(b1-4)GlcNAc(b1-2)Man
# In short: (§1)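 Columns mapping to the same glycan were averaged after glycan names were converted to IUPAC-condensed notation. The data come from 3228 arrays in the Consortium for Functional Glycomics database, limited to those with an available protein sequence. Binding is reported as a within-array Z-score averaged across arrays of one protein sequence and across linkers.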
# [2] = molecular target: Fuc(a1-2)[Gal(a1-3)]Gal(b1-4)GlcNAc(b1-2)Man(a1-3)[Fuc(a1-2)[Gal(a1-3)]Gal(b1-4)GlcNAc(b1-2)Man(a1-6)]Man(b1-4)GlcNAc(b1-4)GlcNAc
# In short: as §1
# [3] = molecular target: Fuc(a1-2)[Gal(a1-3)]Gal(b1-4)GlcNAc(b1-2)Man(a1-3)[Fuc(a1-2)[Gal(a1-3)]Gal(b1-4)GlcNAc(b1-2)Man(a1-6)]Man(b1-4)GlcNAc(b1-4)[Fuc(a1-6)]GlcNAc
# In short: as §1
# [4] = molecular target: Fuc(a1-2)[Gal(a1-3)]Gal(b1-4)GlcNAc(b1-3)GalNAc
# In short: as §1
# [5] = molecular target: Fuc(a1-2)[Gal(a1-3)]Gal(b1-4)GlcNAc(b1-3)[Fuc(a1-2)[Gal(a1-3)]Gal(b1-4)GlcNAc(b1-6)]GalNAc
# In short: as §1
# [6] = molecular target: Fuc(a1-2)[Gal(a1-3)]Gal(b1-4)GlcNAc(b1-6)GalNAc
# In short: as §1
# [7] = molecular target: Fuc(a1-2)[Gal(a1-3)]Gal(b1-4)[Fuc(a1-3)]Glc
# In short: as §1
# [8] = molecular target: Fuc(a1-2)[Gal(a1-3)]Gal(b1-4)[Fuc(a1-3)]GlcNAc
# In short: as §1
# [9] = molecular target: Fuc(a1-2)[Gal(a1-3)]Gal(b1-4)[Fuc(a1-3)]GlcNAc(b1-3)GalNAc
# In short: as §1
# [10] = molecular target: Fuc(a1-2)[Gal(a1-4)]Gal(b1-4)GlcNAc
# In short: as §1
# [11] = molecular target: Fuc(a1-2)[GalNAc(a1-3)]Gal
# In short: as §1
# [12] = molecular target: Fuc(a1-2)[GalNAc(a1-3)]Gal(b1-3)GalNAc(a1-3)[Fuc(a1-2)]Gal(b1-4)GlcNAc
# In short: as §1
# [13] = molecular target: Fuc(a1-2)[GalNAc(a1-3)]Gal(b1-3)GalNAc(b1-3)Gal(a1-4)Gal(b1-4)Glc
# In short: as §1
# [14] = molecular target: Fuc(a1-2)[GalNAc(a1-3)]Gal(b1-3)GlcNAc
# In short: as §1
# [15] = molecular target: Fuc(a1-2)[GalNAc(a1-3)]Gal(b1-3)GlcNAc(b1-2)Man(a1-3)[Fuc(a1-2)[GalNAc(a1-3)]Gal(b1-3)GlcNAc(b1-2)Man(a1-6)]Man(b1-4)GlcNAc(b1-4)GlcNAc
# In short: as §1
# [16] = molecular target: Fuc(a1-2)[GalNAc(a1-3)]Gal(b1-3)GlcNAc(b1-2)Man(a1-3)[Fuc(a1-2)[GalNAc(a1-3)]Gal(b1-3)GlcNAc(b1-2)Man(a1-6)]Man(b1-4)GlcNAc(b1-4)[Fuc(a1-6)]GlcNAc
# In short: as §1
# [17] = molecular target: Fuc(a1-2)[GalNAc(a1-3)]Gal(b1-3)GlcNAc(b1-3)GalNAc
# In short: as §1
# [18] = molecular target: Fuc(a1-2)[GalNAc(a1-3)]Gal(b1-3)GlcNAc(b1-6)GalNAc
# In short: as §1
# [19] = molecular target: Fuc(a1-2)[GalNAc(a1-3)]Gal(b1-4)Glc
# In short: as §1
# [20] = molecular target: Fuc(a1-2)[GalNAc(a1-3)]Gal(b1-4)GlcNAc
# In short: as §1
# [21] = molecular target: Fuc(a1-2)[GalNAc(a1-3)]Gal(b1-4)GlcNAc(b1-2)Man
# In short: as §1
# [22] = molecular target: Fuc(a1-2)[GalNAc(a1-3)]Gal(b1-4)GlcNAc(b1-2)Man(a1-3)[Fuc(a1-2)[GalNAc(a1-3)]Gal(b1-4)GlcNAc(b1-2)Man(a1-6)]Man(b1-4)GlcNAc(b1-4)GlcNAc
# In short: as §1
# [23] = molecular target: Fuc(a1-2)[GalNAc(a1-3)]Gal(b1-4)GlcNAc(b1-2)Man(a1-3)[Fuc(a1-2)[GalNAc(a1-3)]Gal(b1-4)GlcNAc(b1-2)Man(a1-6)]Man(b1-4)GlcNAc(b1-4)[Fuc(a1-6)]GlcNAc
# In short: as §1
# [24] = molecular target: Fuc(a1-2)[GalNAc(a1-3)]Gal(b1-4)GlcNAc(b1-3)Gal(b1-4)GlcNAc
# In short: as §1
# [25] = molecular target: Fuc(a1-2)[GalNAc(a1-3)]Gal(b1-4)GlcNAc(b1-3)Gal(b1-4)GlcNAc(b1-3)Gal(b1-4)GlcNAc
# In short: as §1
# [26] = molecular target: Fuc(a1-2)[GalNAc(a1-3)]Gal(b1-4)GlcNAc(b1-3)GalNAc
# In short: as §1
# [27] = molecular target: Fuc(a1-2)[GalNAc(a1-3)]Gal(b1-4)GlcNAc(b1-3)[Fuc(a1-2)[GalNAc(a1-3)]Gal(b1-4)GlcNAc(b1-6)]GalNAc
# In short: as §1
# [28] = molecular target: Fuc(a1-2)[GalNAc(a1-3)]Gal(b1-4)GlcNAc(b1-6)GalNAc
# In short: as §1
# [29] = molecular target: Fuc(a1-2)[GalNAc(a1-3)]Gal(b1-4)[Fuc(a1-3)]GlcNAc
# In short: as §1
# [30] = molecular target: Fuc(a1-2)[GalNAc(a1-3)]Gal(b1-4)[Fuc(a1-3)]GlcNAc(b1-3)GalNAc
# In short: as §1
# [31] = molecular target: Fuc(a1-2)[GalNAc(a1-4)]Gal(b1-4)GlcNAc
# In short: as §1
# [32] = molecular target: Fuc(a1-2)[GalNAc(b1-3)]Gal
# In short: as §1
# Fuc(a1-3)GlcNAc = molecular target: Fuc(a1-3)GlcNAc
# In short: as §1
# [33] = molecular target: Fuc(a1-3)[Gal(b1-4)]Glc6S
# In short: as §1
# [34] = molecular target: Fuc(a1-3)[Gal(b1-4)]GlcNAc
# In short: as §1
# [35] = molecular target: Fuc(a1-3)[Gal(b1-4)]GlcNAc(b1-2)Man
# In short: as §1
# [36] = molecular target: Fuc(a1-3)[Gal(b1-4)]GlcNAc(b1-2)Man(a1-3)[Fuc(a1-3)[Gal(b1-4)]GlcNAc(b1-2)Man(a1-6)]Man(b1-4)GlcNAc(b1-4)GlcNAc
# In short: as §1
# [37] = molecular target: Fuc(a1-3)[Gal(b1-4)]GlcNAc(b1-2)Man(a1-3)[Fuc(a1-3)[Gal(b1-4)]GlcNAc(b1-2)Man(a1-6)]Man(b1-4)GlcNAc(b1-4)[Fuc(a1-6)]GlcNAc
# In short: as §1
# [38] = molecular target: Fuc(a1-3)[Gal(b1-4)]GlcNAc(b1-3)Gal(b1-3)[Fuc(a1-4)]GlcNAc
# In short: as §1
# [39] = molecular target: Fuc(a1-3)[Gal(b1-4)]GlcNAc(b1-3)Gal(b1-4)[Fuc(a1-3)]GlcNAc
# In short: as §1
# [40] = molecular target: Fuc(a1-3)[Gal(b1-4)]GlcNAc(b1-3)Gal(b1-4)[Fuc(a1-3)]GlcNAc(b1-3)Gal(b1-4)[Fuc(a1-3)]GlcNAc
# In short: as §1
# [41] = molecular target: Fuc(a1-3)[Gal(b1-4)]GlcNAc(b1-3)GalNAc
# In short: as §1
# [42] = molecular target: Fuc(a1-3)[Gal(b1-4)]GlcNAc(b1-6)GalNAc
# In short: as §1
# [43] = molecular target: Fuc(a1-3)[Gal(b1-4)]GlcNAc(b1-6)[Gal(b1-3)GlcNAc(b1-3)]Gal(b1-4)Glc
# In short: as §1
# [44] = molecular target: Fuc(a1-3)[Gal(b1-4)]GlcNAc6S
# In short: as §1
binder,measurement,setting,value
B1,glycan array binding signal (z-score),[1],-0.179
same,glycan array binding signal (z-score),[2],-0.157
same,glycan array binding signal (z-score),[3],-0.165
same,glycan array binding signal (z-score),[4],-0.178
same,glycan array binding signal (z-score),[5],-0.178
same,glycan array binding signal (z-score),[6],-0.184
same,glycan array binding signal (z-score),[7],-0.166
same,glycan array binding signal (z-score),[8],-0.169
same,glycan array binding signal (z-score),[9],-0.172
same,glycan array binding signal (z-score),[10],-0.178
same,glycan array binding signal (z-score),[11],-0.183
same,glycan array binding signal (z-score),[12],-0.174
same,glycan array binding signal (z-score),[13],-0.183
same,glycan array binding signal (z-score),[14],-0.172
same,glycan array binding signal (z-score),[15],-0.167
same,glycan array binding signal (z-score),[16],-0.153
same,glycan array binding signal (z-score),[17],-0.176
same,glycan array binding signal (z-score),[18],-0.178
same,glycan array binding signal (z-score),[19],-0.172
same,glycan array binding signal (z-score),[20],-0.131
same,glycan array binding signal (z-score),[21],-0.177
same,glycan array binding signal (z-score),[22],-0.165
same,glycan array binding signal (z-score),[23],-0.178
same,glycan array binding signal (z-score),[24],-0.054
same,glycan array binding signal (z-score),[25],0.024
same,glycan array binding signal (z-score),[26],-0.173
same,glycan array binding signal (z-score),[27],-0.18
same,glycan array binding signal (z-score),[28],-0.177
same,glycan array binding signal (z-score),[29],-0.157
same,glycan array binding signal (z-score),[30],-0.158
same,glycan array binding signal (z-score),[31],0.081
same,glycan array binding signal (z-score),[32],-0.189
same,glycan array binding signal (z-score),Fuc(a1-3)GlcNAc,-0.189
same,glycan array binding signal (z-score),[33],-0.169
same,glycan array binding signal (z-score),[34],-0.187
same,glycan array binding signal (z-score),[35],-0.181
same,glycan array binding signal (z-score),[36],-0.165
same,glycan array binding signal (z-score),[37],-0.17
same,glycan array binding signal (z-score),[38],-0.169
same,glycan array binding signal (z-score),[39],-0.183
same,glycan array binding signal (z-score),[40],-0.191
same,glycan array binding signal (z-score),[41],-0.175
same,glycan array binding signal (z-score),[42],-0.168
same,glycan array binding signal (z-score),[43],-0.172
same,glycan array binding signal (z-score),[44],-0.165
